From the RNAGym collection of RNA variant scans (doi:10.1093/nar/gkz1192)
Read counts are not given, so values of variants with three or more changes are uncertain.

B1: CPEB3 Ribozyme (parent)
chain: UAACAGGGGGCCACAGCAGAAGCGUUCACGUCGCAGCCCCUGUCAGAUUCUGGUGAAUCUGCGAAUUCUGCUGUAUAUCUC

Variants of: B1
Test: self-cleavage, relative activity (ratio to wild type); higher = more cleavage; in vitro, sequencing
In short: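 Relative activity compares each variant's cleaved/total read fraction with that of the unmutated ribozyme. To get these fractions, barcoded CPEB3 ribozyme libraries from rounds of error-prone PCR were transcribed with T7 RNA polymerase for 5 hours at 37°C and then given 15 min of DNase I treatment before EDTA was added. The RNAs were reverse transcribed with template switching and sequenced on Illumina, and DNA sequencing linked barcodes to variants. A minimum of 5 reads applied, and three batches were averaged.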

| Variant | self-cleavage |
| --- | --- |
| UAACAGGGGGCCGCAGCGGAAGCGUUCGCGUCGCUGCCCCUGUCAGGGUCUGGUGAAUCUGCGAAUUCUGCUGUAUAUCUC | 0.23 |
| UAACAGGGGGCCGCUGCAGAAGCGUUCACGUCGCAGCCCCUGUCAGAUUCUGGUGAAUCUGCGAAUUCCGCUGUAUUUCUC | 0.1 |
| UAACAGGGGGCCGCAGCGGAGGCGUUCUCGUCGCAGCCCCUGCCAGAUUCUGGUGAAUCUGCGAAUUCUGCUGUAUAUCUC | 0.34 |
| UAACAGGGGGCCGCAGCGGAAGCGUUCACGUCGCAGCCCCUGUCAGAUUCUGGUGAAUCUGCGGAUUCUGCUGUAUAUCUC | 0.22 |
| UAACAGGGGGCCGCAGCGGAAGCGUUCACGUCGCAGCCCUUGUCAGAUUCUGGUGAAUCUGCGAAGUCUGCUCCAUAUCUC | 0.07 |
| UAACAGGGGGCCGCAGCGGGGGCGUUCACGUCGCAGCCCCUGUCAGAUUCUGGUGAAUCUGCGAAUUCUGCUGUAUACUUC | 0.1 |
| UAACAGGGGGCCGCAGCGGAGGCGUUGACGUCGCAGCCCCUGUCAGUUUCUGGUGAAUCUGCGAAUUCUGCUGUAUACCUC | 0.01 |
| UAACAGGGGGCCGCAGCCGGAGCGUUCACGCCGCAGCCCCUGUCAGAUUCUGGUGAAUCUGCGAAUUCUGCUGUAUAUCUC | 0.46 |
| UAACAGGGGGCCGCAGCGGAAGCGUUCACGUCGCAGCCCUAGUCAGAUUCUGGUGAAUCUGCGAAAUCAGCUGCAUAUCUC | 0.16 |
| UAACAGGGGGCCGCAGCGGAAGCGUUCACGUCGCUGCCCCUGUCAGAUUCUGGUGAACCUGCUAAUUCUGCUGUAUAUCUC | 0.02 |
| UAACAGGGGGCCGCAGCGGAUGCGUUCACGUCCCAGCCCCUGUCAGAUACUGGUGGGUCUGCGAAUUCUGCUGUAUAUCUC | 0.14 |
| UAACAGGGGGCCGCAGCGGAAGGGUUCACGUCGCAGCCCCUGUCAGAUUCUGGUGAAUCUGCGAAUUCCGCUGUAUAUCUC | 0.16 |
| UAACAGGGGGCCGCAGCCGAAGCGUUCACGUCGCAGCCCCUGUCAGAUCCUGGUGAAUCUGCGAAUUCUGCCGUAUAUCUC | 0.21 |
| UAACAGGGGGCCGCAGCGGAAGCGUUCCCGUCACAGCCCCUGUCAGAUUCUGGUGAAUCUGCGAAUCCUGCUGUAUAUCUC | 0.03 |
| UAACAGGGGGCCGCAGCGGAAGCGUUCACGUCACAGCCCCUGUCAGAUUCUGGUGAAUCUGCGAAUCCUGCUGUAUAUCUC | 0.18 |
| UAACAGGGGGCCGCAGCGGAAGCGUUCACGUCGCAGCCCCUGUCGGUUUCUGGUGAAUCUGCGAAUUCUGCUGUAUAUCUC | 0.29 |
| UAACAGGGGGCCGCAGCGGUAGCGUUCACGCCGCAGCCCCUGUCAGAUUCUGGUGAAUCUGCGAAUUCUGCUGUAUAUCUC | 0.12 |

| Variant | self-cleavage |
| --- | --- |
| UAACAGGGGGCCGCUGCAGAAGCGUUCACGUCGCAGCCCCUGUCAGAUUCUGGUGAAUCUGCGAAUUCUGCUGUAUAUCCC | 0.87 |
| UAACAGGGGGCCGCAGCGGGAGCGUUCACGUCGCAGCCCCUGUCAGAUUCUGGUGAAUCUGCGAAUCCUGCUGUAUAUCUC | 0.22 |
| UAACAGGGGGCCGCAGCGGAAGCGUACACGUCGCAGCCCCUAUCAGACUCUGGUGAAUCAGCGAAUUCUGCUGUAUAUCUC | 0.03 |
| UAACAGGGGGCCGCAGCCGAAGCGUCCACGUCGCAGCCCCCGUCAGAUUCUGGUGAAUCUGCGAAUACUGCUGCAUAUCCC | 0.13 |
| UAACAGGGGGCCGCAGCCGAAGCGUUCACGUCGCAGCCCCUGUCAGAUUCUGGUGUAUCUGCGAAUUCUGCUAUAUAUCUC | 0.13 |
| UAACAGGGGGCCGCAGCGGAAGCGUUCACGUCGCAGCCCCUGUCGGAUUCUGGUGAAUCUGCGAAUUCUGCUGUAUAUCUC | 0.51 |
| UAACAGGGGGCCGCAGCCGAAGCGUUCAUGUCGCAGCCCCUGUCAGAUUCUGGUGGAUCUGCGAUUUCUGCUGUAUAUCUC | 0.33 |
| UAACAGGGGGCCGCAGCGGAAGCAUUCACGUCGCGGCCCCUGUCUGAUUCUGGUGAAUCUGCGAAUUCUGCUGUAUAUCAC | 0 |
| UAACAGGGGGCCGCAGCCGAAGCGUUCACGCCGCAGCCCCUGUCAGAUUCUGGUGAAUCCGCGAAUUCUGCUGUAUAUCUC | 0.12 |
| UAACAGGGGGCCGCAGCGGAAGCGUUCACGUCGCAGCCCCUGUCAGAUUCUGGUGGAUCUGAGAAUUCUGCUGUAUAACUC | 0.11 |
| UAACAGGGGGCCGCAGCGGAAGCGUUCACGUCGCAGCCCCUGUCAGGUUCUGGUGAACCUGCGAAUUCUGCUGUAUUUCUC | 0.5 |
| UAACAGGGGGCCGCAGCGGAAGCGCUCACGUCGCAGCCCCUGACAGAUUCUGGUGAAUCUGCGAAUUCUGAUGUAUAUCUC | 0.26 |
| UAACAGGGGGCCGCAGCGGAAGCGUUCACGUCGCAGCCCCUGUCAGAUUCUGGUGAAUCUGCGAAUUCUGCUGUGUAUCUC | 0.1 |
| UAACAGGGGGCCGCAGCGGAAGCGUUCACGUCGCAGCCCCUGUCAGAUUCUUGUGAAUCUGCGAAUUCUGCCGUAUAUCAC | 0.15 |
| UAACAGGGGGCCGCUGCAGAAGCGUUCACGUCGCAGCCCCUGUCAGAUUCUGGUGAAUCUGCGAAUCCCGCAGUAUAUCUC | 0.12 |
| UAACAGGGGGCCGCAGCGGAAGCGUUCACGUCGCAGCCCCUGUCAGAUUCUGGUGAAUCUGCUAAUUCUGCUGUAUAUCUC | 0.37 |
| UAACAGGGGGCCGCAGCGGAAGCGUUCACGUCGCGGCCCCUGUCGGUUUCUGGUGAAUCUGCGAAUUCUGCAGUAUAUCUC | 0 |
